Hit rate of the full screen: of about 310,000 compounds, about 14,000 (4.5%) showed an effect of 50% or more. The effect is printed as a negative number. This is one part of the list.
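Also: peak tail current of the secondary pulse compared with the same well before compound.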

The target in this experiment is human ether-à-go-go-related gene (hERG) potassium channel (human, UniProt Q12809). The experiment in a line: primary screen, population patch clamp on CHO cells stably expressing hERG.
human ether-à-go-go-related gene (hERG) potassium channel, sequence (Q12809 whole entry, looked up): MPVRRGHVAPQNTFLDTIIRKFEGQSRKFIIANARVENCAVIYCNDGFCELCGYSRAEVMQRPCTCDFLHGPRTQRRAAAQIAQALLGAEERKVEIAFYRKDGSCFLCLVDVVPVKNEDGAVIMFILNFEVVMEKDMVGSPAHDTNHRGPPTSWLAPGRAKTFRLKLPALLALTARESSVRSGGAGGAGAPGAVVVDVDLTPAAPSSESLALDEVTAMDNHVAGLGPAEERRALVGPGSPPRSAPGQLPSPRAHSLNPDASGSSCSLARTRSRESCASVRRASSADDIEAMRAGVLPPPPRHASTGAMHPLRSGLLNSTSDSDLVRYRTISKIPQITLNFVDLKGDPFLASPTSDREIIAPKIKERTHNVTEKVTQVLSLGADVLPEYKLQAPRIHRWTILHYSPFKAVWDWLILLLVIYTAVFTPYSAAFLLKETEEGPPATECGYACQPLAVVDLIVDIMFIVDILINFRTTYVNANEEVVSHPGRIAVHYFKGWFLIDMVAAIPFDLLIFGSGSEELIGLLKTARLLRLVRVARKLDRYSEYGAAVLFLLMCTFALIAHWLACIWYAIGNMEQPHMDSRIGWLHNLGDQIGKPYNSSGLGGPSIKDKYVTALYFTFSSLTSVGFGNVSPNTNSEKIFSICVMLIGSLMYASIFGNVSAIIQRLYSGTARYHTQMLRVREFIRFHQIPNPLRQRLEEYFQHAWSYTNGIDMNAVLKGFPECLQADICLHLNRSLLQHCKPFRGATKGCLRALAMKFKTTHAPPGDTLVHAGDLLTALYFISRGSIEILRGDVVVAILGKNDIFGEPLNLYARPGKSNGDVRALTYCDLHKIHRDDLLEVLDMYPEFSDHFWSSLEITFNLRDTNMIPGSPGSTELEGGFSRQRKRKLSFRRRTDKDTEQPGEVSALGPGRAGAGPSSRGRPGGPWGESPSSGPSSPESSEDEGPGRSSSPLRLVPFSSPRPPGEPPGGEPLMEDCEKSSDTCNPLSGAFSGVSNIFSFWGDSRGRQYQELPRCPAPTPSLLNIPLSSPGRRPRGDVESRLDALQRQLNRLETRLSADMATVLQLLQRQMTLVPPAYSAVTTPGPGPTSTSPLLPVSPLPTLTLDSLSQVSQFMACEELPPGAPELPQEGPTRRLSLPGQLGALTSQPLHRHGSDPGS
`Cc1c(Cl)cccc1NC(=O)N1CCN(C(=O)c2ccco2)CC1`: the “hERG current change (%, negative = inhibition) at 10uM” value turned out to be 6.16%.

With `Cc1cccc(NC(=O)CSCC(=O)Nc2nnc(C3CC3)s2)c1`, the “hERG current change (%, negative = inhibition) at 10uM” value is given as 14.5%.

With `CC(C)NC(=O)CCCOc1ccc(Cl)cc1Cl`, the “hERG current change (%, negative = inhibition) at 10uM” value is recorded as -17.1%.

Turning to `Cc1cc(C)nc(NS(=O)(=O)c2ccc(Br)cc2)n1`, the “hERG current change (%, negative = inhibition) at 10uM” value came to 16.4%.

As for `CC(C)CCNc1nc(-c2ccco2)c2c(c1C#N)CCCC2`, the “hERG current change (%, negative = inhibition) at 10uM” value is recorded as 9.25%.

With `O=C(c1ccccc1)c1ccc(Sc2ccc([N+](=O)[O-])cc2)cc1`, the “hERG current change (%, negative = inhibition) at 10uM” value is -7.34%.

Turning to `CC12CCC(=O)N1C(C(=O)Nc1cccc(F)c1)CS2` (stereo not drawn), the “hERG current change (%, negative = inhibition) at 10uM” value was 4.14%.

For `COc1cc(-c2ccc3oc(-c4ccsc4)c(C#CC4(O)CCCCC4)c3c2)cc(OC)c1OC`, the “hERG current change (%, negative = inhibition) at 10uM” value is 7.13%.

For `Cc1ccc(S(=O)(=O)N(CC(=O)N2CCOCC2)c2ccccc2F)cc1`, the “hERG current change (%, negative = inhibition) at 10uM” value is given as 16.3%.

On to `O=C(Nc1ccc2c(c1)nc1n2CCN(Cc2ccccc2)C1)c1cccs1`, for which the “hERG current change (%, negative = inhibition) at 10uM” value is recorded as -13.9%.

With `O=C(c1cccc([N+](=O)[O-])c1)N1CCN(Cc2ccccc2)CC1`, the “hERG current change (%, negative = inhibition) at 10uM” value is given as -9.31%.

As to `COc1ccc(/C=C/C(=O)c2sc(-c3ccccc3)nc2C)cc1`, the “hERG current change (%, negative = inhibition) at 10uM” value is -3.36%.

Turning to `CCOC(=O)c1c(C)nc2c(c1-c1ccc(OC)c(OC)c1)C(=O)c1ccccc1-2`, the “hERG current change (%, negative = inhibition) at 10uM” value is recorded as -4%.

`COc1cc2c(cc1NC(=O)CC1SC(N3CCCC3)=NC1=O)oc1ccccc12` (stereo not drawn): the “hERG current change (%, negative = inhibition) at 10uM” value is given as 5.26%.

As for `CCCCN(C(=O)CSc1nnnn1-c1ccccc1OC)C1CCS(=O)(=O)C1` (stereo not drawn), the “hERG current change (%, negative = inhibition) at 10uM” value was -6.4%.

As for `COc1cc(OC)nc(NC(=O)NS(=O)(=O)c2ccc(F)cc2)n1`, the “hERG current change (%, negative = inhibition) at 10uM” value was 15.1%.

In the case of `O=C1CC(NNc2nc3ccccc3s2)C(=O)N1c1ccc(F)cc1` (stereo not drawn), the “hERG current change (%, negative = inhibition) at 10uM” value is on record as 3.25%.

Consider `COc1ccc(C(=O)NCC(=O)NCC(=O)OCC(=O)c2ccc(C)cc2)cc1`, for which the “hERG current change (%, negative = inhibition) at 10uM” value was 4.23%.

As for `O=[N+]([O-])c1ccc(/C([O-])=C(/C(=S)Nc2ccccc2F)[n+]2ccccc2)cc1`, the “hERG current change (%, negative = inhibition) at 10uM” value was -6.6%.

Turning to `CCSc1nnc(CNc2ccc(C)cc2)n1C`, the “hERG current change (%, negative = inhibition) at 10uM” value was 6.28%.

`S=C(NC1CCCC1)N1CCN(C/C=C/c2ccccc2)CC1`: the “hERG current change (%, negative = inhibition) at 10uM” value is -41%.

In the case of `Cc1ccsc1/C=N\NC(=O)c1cc(C(C)(C)C)[nH]n1`, the “hERG current change (%, negative = inhibition) at 10uM” value is -9.77%.

On to `Cc1nnc(SCC(=O)Nc2ccc(Br)cc2)n(N)c1=O`, for which the “hERG current change (%, negative = inhibition) at 10uM” value is reported as -1.1%.

In the case of `CCCN(CCC)Cc1c(C(=O)N/N=C/c2c[nH]c3ccccc23)nnn1-c1nonc1N`, the “hERG current change (%, negative = inhibition) at 10uM” value was -18.5%.

Regarding `O=C(c1ccc(Cl)cc1)n1cnc2ccccc21`, the “hERG current change (%, negative = inhibition) at 10uM” value was -7.51%.

`COc1ccc(S(=O)(=O)NC2CCCCC2)cc1C`: the “hERG current change (%, negative = inhibition) at 10uM” value worked out at 10.8%.

Turning to `CN(C)C(=S)SCC(=O)NC(=O)NC(C)(C)C`, the “hERG current change (%, negative = inhibition) at 10uM” value amounted to 6.73%.

In the case of `Cc1cccc(C)c1OC(=O)CSc1nnc(-c2ccccc2)o1`, the “hERG current change (%, negative = inhibition) at 10uM” value was 3.2%.

With `CC(=O)Nc1ccccc1C`, the “hERG current change (%, negative = inhibition) at 10uM” value came to 11.7%.

Turning to `Cc1cccc(N(C)C(=O)c2cc(S(=O)(=O)N3CCc4ccccc43)cn2C)c1`, the “hERG current change (%, negative = inhibition) at 10uM” value is listed as -20.3%.

In the case of `CCCCN(CCCNC(=O)C1CCN(S(=O)(=O)N2CCOCC2)CC1)c1ccccc1`, the “hERG current change (%, negative = inhibition) at 10uM” value is listed as -48.8%.

With `Cc1cc(CNC(=O)c2cc(Br)ccc2Cl)nn1C`, the “hERG current change (%, negative = inhibition) at 10uM” value is -3.39%.

In the case of `CCCN(CCC)c1nc(N(CCC)CCC)[nH]c(=O)n1`, the “hERG current change (%, negative = inhibition) at 10uM” value came to 3.77%.

Regarding `COc1ccc(S(=O)(=O)N2CCCC2CNC(=O)C(=O)NCc2ccc(C)cc2)cc1` (stereo not drawn), the “hERG current change (%, negative = inhibition) at 10uM” value is -29.6%.

For the compound `C=CCn1c(Cc2ccc(OC)cc2)nnc1SCC(N)=O`, the “hERG current change (%, negative = inhibition) at 10uM” value was -11.6%.

As to `O=C(c1ccco1)N1CCN(c2ncnc3scc(-c4cccs4)c23)CC1`, the “hERG current change (%, negative = inhibition) at 10uM” value is given as -63.9%.

With `COc1cc2[nH]c(=O)n(CCC(=O)NCCC(C)C)c(=O)c2cc1OC`, the “hERG current change (%, negative = inhibition) at 10uM” value was found to be 7.13%.

Turning to `COc1ccccc1P(=O)(c1ccccc1)c1ccccc1`, the “hERG current change (%, negative = inhibition) at 10uM” value was 15.1%.

Turning to `CC1(C)[C@H]2CC=C(CN3CCC(N4CCC(C(=O)N5CCCC5)CC4)CC3)[C@@H]1C2`, the “hERG current change (%, negative = inhibition) at 10uM” value is reported as -25.1%.

In the case of `COc1cc(Cl)c(CN2CCCC(CO)(Cc3cccc(Cl)c3)C2)cc1OC` (stereo not drawn), the “hERG current change (%, negative = inhibition) at 10uM” value is given as -45.6%.

As to `Cc1nc2c([N+](=O)[O-])c(C)c(C)cc2[nH]1`, the “hERG current change (%, negative = inhibition) at 10uM” value is listed as 11.7%.

On to `COc1cc(CNCc2ccc3c(c2)OCO3)c([N+](=O)[O-])cc1OC`, for which the “hERG current change (%, negative = inhibition) at 10uM” value was found to be 8.31%.

As to `O=C(NCCCN1CCOCC1)C1Cc2c(ccc3ccccc23)O1` (stereo not drawn), the “hERG current change (%, negative = inhibition) at 10uM” value was -9.07%.

For the compound `CN(CC(=O)NCc1ccc(F)cc1)S(=O)(=O)c1cccc2nsnc12`, the “hERG current change (%, negative = inhibition) at 10uM” value is -21.1%.

Consider `CCOC(=O)c1c(C)[nH]c(C=C2C(=O)CCCC2=O)c1O`, for which the “hERG current change (%, negative = inhibition) at 10uM” value was -1.8%.

The record behind these values is publication PMC4336329 (PLoS ONE, 2015).
